Measured values taken from the RNAGym collection of RNA variant scans (doi:10.7554/elife.90254).
Read counts are not given, so values of variants with three or more changes are uncertain.

B1: LINE1-mini (parent)
chain: GGCAGAGCUCAACACAGCGUGGCAAAGUGGCUGUGGCUAGACUGCC

Variants of: B1
Assay: self-cleavage, relative activity (ratio to wild type); higher = more cleavage; in vitro, sequencing; the parent is a self-cleaving ribozyme

Row | Variant | self-cleavage
1 | GUCAGAGCUCAACACGGCGUGGCAAAGUGGCUGUGCCGAGACUGCC | 0.08
2 | GGCAGAGCUCAACACAGCGUGGCAAAGUUGCUGAGACUAGGCUGCC | 0.01
3 | GGCAGAGCUCAACACAGCGUGGCAAAGUGCCUGUGACUAGACUGCA | 0.04
4 | GGCAGAGCUCAACACAGCGUGGCAAAGUGGCUGUAGGAAGACUGCC | 0.01
5 | GACAGAGCUCUACACAGCGUGGCAAAGUGGCUGUGGCUAAACUGCC | 0.03
6 | GGCAGCUCUGUACACAGAGUGGCAAAGCGGCUGUGGCUAGACUGCC | 0.01
7 | GGCAGAGCUCAAUACAUCGUGGCAAAGUGGCUGUAGCUAGACUGCC | 0.02
8 | GGCAGAGCGCAACUCAGCGUAGCACAGUGGUUGUGGCUAGACUGCC | 0.01
9 | GGCAGGGCUCAACACGGCGUGGCAAUGUGGCUGUGGCUAAACUGCC | 0.02
10 | GGAAUCGCACAACACAGCGUGGCAAAGUGGCUGUGGCUAGACUGCC | 1.73
11 | GGCAGAGCUCCACCCAGCGUGGCAAAGUGGCUUUGGCUAGACUGCU | 0
12 | GGCAGAGCUCAACACAGCGUGGCAAUGUGGUUGUGGCUAGAAUUCC | 0.07
13 | GGCAGAGCUCAACACUGUGUGGCAAAGUGGCUGUGGCUAGCCUGCG | 0.01
14 | GGCAGAGCUAAACACAGCGUGACAAAGUGGCUGUGGGUAGACUGCC | 0.02
15 | GGCAGAUCUCAACACAGAGUGGCAUGGUGGCUGUGGCUAGACUGCC | 0.04
16 | GGCAGAGCUAAACACAGCGUGGCAAAGAUGCUGUGGCUAGACUGCC | 0.04
17 | GGCAGAGCUCAACUCAGCGUGGCAAAUUAGCUGUGGCUAGACUGCC | 0.39
18 | GGCAGAGCUCAACACACCGUAGCAAAGUUGUUGUAGCUAGACUGCC | 0.01
19 | UGCAGGGCUUAACACAGCGUGGCAAAGUGGCUGUGGCAAGACUGCC | 0.01
20 | GGCAGAGCUCAACACAGCGUGGCAUGGUGGCUGUGGCUAGACUAAC | 0.01
21 | GGCAGAUCUCAACACAGCGUGGCAAAGUGGCUGUGGGUAUACUGCC | 0.17
22 | GGCAGAGAUCAACAAUGCGUGGCAAAGUGGCUGUGGCUAGACUGCC | 0.11
23 | GGCGGUGCUCAACACAGCGUGGCAAAGUCACUGUGGCUAAACUGCC | 0.2

Row | Variant | self-cleavage
24 | GGCAGAGCUCAACACAGCGUGGCAAACUAGCAGUGGCUAGACUGCC | 0.01
25 | GGCAGAGAUCAACACAGCGUGGCAAAUUGACCGUGGCUAGACUGCC | 0.24
26 | GUCAGAGCUCAACACAGCGUAGCAAAGUGGCCGUAGCUAGACUGCC | 0.03
27 | GGCAAAGCUCUAUACAGCGUGGCAAAGUGGCUGUGGCUAGACUGCC | 0.04
28 | GGCAGCGCUCAACACCGCGUGGCAAAGUGUCUGUGGCUAGACUGCC | 0.01
29 | GCCAGAGCUCAACACGGCGUGGCAAAGUGGCUGUGGCUAGACUGCG | 0.03
30 | GGCAGAGCGCAACACAGCGUGGCAAAGUGGAUGUGGCUAGACUGCG | 0.04
31 | GGCAGAGCUAAACACAGUGUGGCAAAGUGGCUGUGGCUAAACUGGC | 0.01
32 | GGCAGAGCUCAACAUACCGUCGCAAAGUGGCAUUGGCUAGACUGCC | 0.07
33 | GCCAGAGCUCAACACCGCGUGGCCAAGUGGCUGUGGCUAGACUGCA | 0.03
34 | GGCAGAGCUCAACACAGCGUGGAAAAGUGGUUGUGGCCAGACUGCC | 0.46
35 | GGCAGAGCUCCACACAGCGUUCCAAAGUGGCUGUGGCUCGACUGCC | 0.01
36 | GGCAGAGCUCAACACAGCGUGUCAAAGUGGCUGUGGCCAGUCUGCC | 0.02
37 | GGCAGAGCUCAACAUAGCGUGGCAAAGGGGCUGUUGCUAAGCUGCU | 0.01
38 | GGCAAAGGUCAACACAGCGUGCCAUAGUGGCUGUGGCUAGACCGCC | 0.01
39 | GGCAUAGCUCAACACAGCGUGGGAAGGUGGCUGUGGAUAGACUGCC | 0.03
40 | GGCAGAGCUUAACACAGCGCGGCAUAGUGGCUGUGGCUGGACUGCC | 0.05
41 | GGCACAGAUCAAUACAGCGUGGCAAAGUAGCUGUGGCUACACUGCC | 0.16
42 | GGCAGAGCCCAACACAGCGUGGCAAAGUGCCUGUGGCUUGAGUAAC | 0.01
43 | GGCCGAGCUCAAGACAGCGUGGCAAAGUGGCUGUGGCUAGAGUGCG | 0.02
44 | GGCAGAGCUCAACACAGCGUGACAUGGUUGCUGUGGAUAGACUGCC | 0.11
45 | GGCAGGGCGCAACACAGCGUGGCAUAGUGGCUGUGGCUAAACUGCC | 0.02
46 | GGCAGAGCUCGAUACAGCGUGGCAAAGAGGCUGAGGCUAGACUGCC | 0.01

Row | Variant | self-cleavage
47 | GGCAAAGGUCAACACAGCGUGGCAAAGUCGCUGUCGCUAGACUGCC | 0.02
48 | GGCAGAGAUCAACACAACAUGGCAAACUUGCUGUGGAUAGACAGCG | 0.11
49 | GGCAGAGCUCAACAGAGCAUGGCAAAAUGGCUGUGGCUAGACUGCC | 0.09
50 | GGCAGAGCGAAACACGGCGGGGCAAAGUGGCUGUGGCUAGAGUGCC | 0.01
51 | CGCAGAGCUCAACACAGCGUGGCAAAAUGGCUAUGGCUAGACUGCC | 0.04
52 | GGCAGAGCUAAACACCGCUUGGCAAAGUGGCUGUGGCUAGACUGCC | 0.02
53 | GGCAGAGCUCAACACAGUGUGGCACAGUUGCUGUGGCUAGACUGCC | 0.29
54 | GGCAGUGCUCAACACAGCGUGGCAAAGUGGCUUUGGCUAGACUGCU | 0.14
55 | GGCAGAGUUCAACCCAGCGUUGCAAAGUGGCUGUGACUAGACUGCC | 0.5
56 | GGCAGAGCUCAAUACAGCGUUGCAAAGUGGCUUUGGCUAGACUGCC | 0.01
57 | GGCAGAGCACAACACAGCGUGGUAAAGUGGCUGUGGCUAGACUAGC | 0.33
58 | GGCGGAGCUCAACACAACGUGACAAAGUGGAUGUGGUUAGACUGCC | 0.07
59 | GGCAGAACUCAACACAGCGUGGCAAAGGGGCUGUGGCCAGGCUGCC | 0.02
60 | GGAAGAACUCAACACAUCGAGGCAAAGUGGCUGUGGCUACCCUGCC | 0.11
61 | GGCAGAGCUCAACACCGCGUGCCAAAGUGGCUGUGGCUAGACUGCG | 0.1
62 | GGCAGAGUUCAACGCAGCGUGGCAAAGUGGCUGUGGCUAGACUGAC | 0.04
63 | GGCAGAGCUCAACACAGUGUGGCAAAGUGGCCGUGGUUAGACUGCC | 0.04
64 | GGCAGAGCUCAACAUAGCGUGGCAAAGUUACUGCGGCUAGUCUGCC | 0.03
65 | CGCAGAGCUCAAGACAGCGUGGCAAAGUGGCUGUGGCUGUACUGCC | 0.03
66 | GGCAGAGUUUAACACAGCGUGGCAAAGUUGCUGUGGCUAGACUGCC | 0.05
67 | GGCAGAGCUCAACACCGCGUGGCAAAGUUGAUGUGGCUAGACUGCC | 0.13
68 | CGCAGAGCUCAACACAGCGUGGCACAGGGGCUGUGGCUACACUGCC | 0
69 | GGCAGAGCUCAACACAGGGUGGCAAACUGGCUGUGGCAAGACUUCC | 0.07

Row | Variant | self-cleavage
70 | GGCAGAGAUCCACACAGCGUGUCAAAGUGGCUGUGGCGAGACUGCC | 0.03
71 | GGCAGAGCUAAACACAGCGUGGCAACGUCGCUGUGCCAAGACUGCC | 0
72 | GGCAGAGCUCAAAAAAGCGUGGCAAAGUGGCUGUGGCGAGACUGCC | 0.17
73 | GGCAGAGCUCAAUACACCGUGGGAAAGUGGCGGUGGCUAGACUGUC | 0.01
74 | GACAGUGCUCAACACAGGGUGGCAAAGUGGCUGUGGCUAGACUGCC | 0.08
75 | GGGAGAGCUCAACAUAGCGUGUCAAUGUGGCUGUGGCUAGACUGCC | 0.14
76 | GGCUGAGCUCAACACAGCUUGGCAAAGUGGCUGGGGCUAGACUGCC | 0.03
77 | GGCAGAACUCAACACAGCGUGACAAAGUGGCUGUGGCUGGACUGCC | 0.05
78 | GGCAGGGCUUAACACAGCGUGGCAAAGUGGCUGUAGCUAGACUGCC | 0.04
79 | GGCAGAGUUCAACGCAGCGUGGCAAAGUGGCUGUUGCUAGACUGCC | 0.09
80 | GGCAGAGCUCACCCCAGCGUAGCAAAGGCGCUGUGGCUAGACUGCC | 0
81 | GGCAGAGCUCAACACAGCUUGGCAGAGUGGCUAUGGCUUGACUGCC | 0.06
82 | GGCAUAGCUAUACACAGCCUGGCACAGGAGCUGUGGCUAGACUGCC | 0.01
83 | GGCAGAGCUCAACACAGCGUGGUAAAGUGGCUGUGGCAAGGCUGCC | 0.15
84 | GGCAGAGCUCAGCAAAACGUGGCAAAGUGGCUGUCGGUAGACCGCC | 0
85 | GGUAGAGCUCAACAGAGGGUAGCAAAGUGGCUGUGGCUAGACUGCC | 0.02
86 | GGCAGAGCUCAAAACAGCUUGGUAAAGUGGCUGUGGCUAGACUGCC | 0.11
87 | GGCAGAGCAUAACACCGGGUGGCAAAGUGGUUGUGGCUAGAUUGCC | 0.01
88 | GGCAGAGCUAAACACAGCGUGGCAAAGUGGCUGUAGCUAGUCCGAC | 0.01
89 | GGCAGAGCUCAACCCAGCGUGGCAAAGUGUCUGUGGAUAGACUGGC | 0.24
90 | GGCAGAGCGCAACACAGCGUGUCAAAGUGGCUGAGGCUAGACUGGC | 0.07
91 | GGCAGAGCUCAUCACAGCGUGGCAAAGUGGCUGUUGCUAGACUGGC | 0.03
92 | GGCAGCGCUCAACAAAGCGUGGCACAGUGGCUGUGGCUAGAAUGCC | 0.02

Row | Variant | self-cleavage
93 | GGCAGAGCUCAACACAGCGUGGCAAAGUGGCAGUGGCUAUACCGCC | 0.02
94 | GGCAGAGCGCAACACAGCGUGACGAAGUGGCUGUGGCUGGAAUGCC | 0.02
95 | GGUAGAGCUCAACACAGCGUGGGAAACUGGCUGUGGCUAGACUGCC | 0.05
96 | GGCAGAGCUCAACACAGCGUGUCAAAGUGUCUGUGGCUUGGCGGCC | 0.03
97 | GGUAGAGCUCAACACAGCGUGCCAAAGUGGCUGUGGCUAGAAUGCC | 0.04
98 | GGCAGAGCCCAACACAACGUGGCGCAGUGGCUGUGGCUAGACUGCC | 0.02
99 | GGCAGAGAUCAACACAGCGUGGCAAAGUUGCUGUGGCUAGACUGCA | 0.49
100 | GGCAGAGCUCAACACAGCGUGGCAAAGUGGCAGUGGCUAGAAGGCC | 0.02
101 | GGUAGAGCUCAACACAGCGUGGACAAUUGGCUGUGGCUAGACUGCC | 0.31
102 | GGAAGCGGUCCACACAGCGUGGCAAAGUGGUUGUGGCUAGACUGCC | 0.02
103 | GGCAGAGCUCAACCCAACGAGGCGAAGUGGCUGUGAUUAGACUGCC | 0.08
104 | GGCAUAGCUCAAGAUAGCGUGGCAAAAUGGCUGUGGCCAGACUGCC | 0.08
105 | GGCAGAUCUCAACACUGCGUGGCAAAGUUGCUGUGGCUAGAGUGCC | 0.01
106 | GGCAAAGCUCAACAAAGUGUGGGAAAGUGGCUGUGGCUAGACUGCC | 0.08
107 | GGCAGAGUUCAACACAGCUUGGCAAAGUGGCUGGGGCUAGACUGCC | 0.37
108 | GGCAGGGGUGAAUACAGCGUGGCAAAGUGGCUGUGGAUAGACUGCC | 0
109 | GGCAGGGUUCAAGACAGCGUGGCAAAGUGGCUGUGGCUAGAUUGCC | 0.08
110 | GGCAGAGCUAAACACACCGUGGCAAAGUGGCCGUGCCUAGUCUGGC | 0
111 | GUCAGGGCUAAACACAGCGUGGAAAACUGACUGUGGCUAGAAUGCC | 0
112 | GGCAGAUCUCAAUACAGCGUGCCAAAGUGGCUGUGGGUAGACUGCC | 0.02
